# Measurements as given in the supplement of paper PMC8728848.
# Some of the results follow.
# How the values were obtained:
# Experiment in all cases: glycan array binding signal (z-score within array); higher = stronger binding
# Conditions in all cases: glycan notation: IUPAC condensed, linker removed
# [1] = molecular target: GlcNAc(a1-4)Gal(b1-4)GlcNAc(b1-3)Gal(b1-4)GlcNAc
# Procedure, shortened: (§1)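 From the Consortium for Functional Glycomics database, 3228 arrays were curated, keeping only those whose protein sequence was available. Binding is given as a within-array Z-score averaged across arrays sharing a protein sequence and across linkers. Negative Z-scores can be read as non-binding.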
# [2] = molecular target: GlcNAc(a1-4)Gal(b1-4)GlcNAc(b1-3)Gal(b1-4)GlcNAc(b1-3)Gal(b1-4)GlcNAc
# Procedure, shortened: as §1
# [3] = molecular target: GlcNAc(a1-4)Gal(b1-4)GlcNAc(b1-3)Gal(b1-4)[Fuc(a1-3)]GlcNAc(b1-3)Gal(b1-4)[Fuc(a1-3)]GlcNAc
# Procedure, shortened: as §1
# [4] = molecular target: GlcNAc(a1-6)Gal(b1-4)GlcNAc
# Procedure, shortened: as §1
# [5] = molecular target: GlcNAc(b1-2)Gal(b1-3)GalNAc
# Procedure, shortened: as §1
# [6] = molecular target: GlcNAc(b1-2)Gal(b1-3)GlcNAc
# Procedure, shortened: as §1
# [7] = molecular target: GlcNAc(b1-2)Man(a1-3)[GlcNAc(b1-2)Man(a1-6)]Man(b1-4)GlcNAc(b1-4)GlcNAc
# Procedure, shortened: as §1
# [8] = molecular target: GlcNAc(b1-2)Man(a1-3)[GlcNAc(b1-2)Man(a1-6)]Man(b1-4)GlcNAc(b1-4)[Fuc(a1-6)]GlcNAc
# Procedure, shortened: as §1
# [9] = molecular target: GlcNAc(b1-2)Man(a1-3)[GlcNAc(b1-4)][GlcNAc(b1-2)Man(a1-6)]Man(b1-4)GlcNAc(b1-4)GlcNAc
# Procedure, shortened: as §1
# [10] = molecular target: GlcNAc(b1-2)Man(a1-3)[GlcNAc(b1-4)][GlcNAc(b1-2)Man(a1-6)]Man(b1-4)GlcNAc(b1-4)[Fuc(a1-6)]GlcNAc
# Procedure, shortened: as §1
# [11] = molecular target: GlcNAc(b1-2)[GlcNAc(b1-4)]Man(a1-3)[GlcNAc(b1-2)Man(a1-6)]Man(b1-4)GlcNAc(b1-4)GlcNAc
# Procedure, shortened: as §1
# [12] = molecular target: GlcNAc(b1-2)[GlcNAc(b1-4)]Man(a1-3)[GlcNAc(b1-4)][GlcNAc(b1-2)Man(a1-6)]Man(b1-4)GlcNAc(b1-4)GlcNAc
# Procedure, shortened: as §1
# [13] = molecular target: GlcNAc(b1-2)[GlcNAc(b1-4)]Man(a1-3)[GlcNAc(b1-4)][GlcNAc(b1-2)[GlcNAc(b1-6)]Man(a1-6)]Man(b1-4)GlcNAc(b1-4)GlcNAc
# Procedure, shortened: as §1
# [14] = molecular target: GlcNAc(b1-2)[GlcNAc(b1-4)]Man(a1-3)[GlcNAc(b1-4)][GlcNAc(b1-2)[GlcNAc(b1-6)]Man(a1-6)]Man(b1-4)GlcNAc(b1-4)[Fuc(a1-6)]GlcNAc
# Procedure, shortened: as §1
# [15] = molecular target: GlcNAc(b1-2)[GlcNAc(b1-6)]Man(a1-6)[GlcNAc(b1-2)Man(a1-3)]Man(b1-4)GlcNAc(b1-4)GlcNAc
# Procedure, shortened: as §1
# [16] = molecular target: GlcNAc(b1-2)[GlcNAc(b1-6)]Man(a1-6)[GlcNAc(b1-2)Man(a1-3)]Man(b1-4)GlcNAc(b1-4)[Fuc(a1-6)]GlcNAc
# Procedure, shortened: as §1
# [17] = molecular target: GlcNAc(b1-2)[GlcNAc(b1-6)]Man(a1-6)[GlcNAc(b1-4)][GlcNAc(b1-2)Man(a1-3)]Man(b1-4)GlcNAc(b1-4)GlcNAc
# Procedure, shortened: as §1
# GlcNAc(b1-3)Fuc = molecular target: GlcNAc(b1-3)Fuc
# Procedure, shortened: as §1
# GlcNAc(b1-3)Gal = molecular target: GlcNAc(b1-3)Gal
# Procedure, shortened: as §1
# [18] = molecular target: GlcNAc(b1-3)Gal(b1-3)GalNAc
# Procedure, shortened: as §1
# GlcNAc(b1-3)Gal(b1-4)Glc = molecular target: GlcNAc(b1-3)Gal(b1-4)Glc
# Procedure, shortened: as §1
# [19] = molecular target: GlcNAc(b1-3)Gal(b1-4)GlcNAc
# Procedure, shortened: as §1
# [20] = molecular target: GlcNAc(b1-3)Gal(b1-4)GlcNAc(b1-2)Man(a1-3)[GlcNAc(b1-3)Gal(b1-4)GlcNAc(b1-2)Man(a1-6)]Man(b1-4)GlcNAc(b1-4)GlcNAc
# Procedure, shortened: as §1
# [21] = molecular target: GlcNAc(b1-3)Gal(b1-4)GlcNAc(b1-2)Man(a1-3)[GlcNAc(b1-3)Gal(b1-4)GlcNAc(b1-2)Man(a1-6)]Man(b1-4)GlcNAc(b1-4)[Fuc(a1-6)]GlcNAc
# Procedure, shortened: as §1
# [22] = molecular target: GlcNAc(b1-3)Gal(b1-4)GlcNAc(b1-2)[GlcNAc(b1-3)Gal(b1-4)GlcNAc(b1-6)]Man(a1-6)[GlcNAc(b1-3)Gal(b1-4)GlcNAc(b1-2)Man(a1-3)]Man(b1-4)GlcNAc(b1-4)GlcNAc
# Procedure, shortened: as §1
# [23] = molecular target: GlcNAc(b1-3)Gal(b1-4)GlcNAc(b1-3)Gal(b1-4)GlcNAc
# Procedure, shortened: as §1
# [24] = molecular target: GlcNAc(b1-3)Gal(b1-4)GlcNAc(b1-3)Gal(b1-4)GlcNAc(b1-2)Man(a1-3)[GlcNAc(b1-3)Gal(b1-4)GlcNAc(b1-3)Gal(b1-4)GlcNAc(b1-2)Man(a1-6)]Man(b1-4)GlcNAc(b1-4)GlcNAc
# Procedure, shortened: as §1
# [25] = molecular target: GlcNAc(b1-3)Gal(b1-4)GlcNAc(b1-3)Gal(b1-4)GlcNAc(b1-2)Man(a1-3)[GlcNAc(b1-3)Gal(b1-4)GlcNAc(b1-3)Gal(b1-4)GlcNAc(b1-2)Man(a1-6)]Man(b1-4)GlcNAc(b1-4)[Fuc(a1-6)]GlcNAc
# Procedure, shortened: as §1
# [26] = molecular target: GlcNAc(b1-3)Gal(b1-4)GlcNAc(b1-3)Gal(b1-4)GlcNAc(b1-2)[GlcNAc(b1-3)Gal(b1-4)GlcNAc(b1-3)Gal(b1-4)GlcNAc(b1-6)]Man(a1-6)[GlcNAc(b1-3)Gal(b1-4)GlcNAc(b1-3)Gal(b1-4)GlcNAc(b1-2)Man(a1-3)]Man(b1-4)GlcNAc(b1-4)[Fuc(a1-6)]GlcNAc
# Procedure, shortened: as §1
# [27] = molecular target: GlcNAc(b1-3)Gal(b1-4)GlcNAc(b1-3)Gal(b1-4)GlcNAc(b1-3)Gal(b1-4)GlcNAc(b1-2)Man(a1-3)[GlcNAc(b1-3)Gal(b1-4)GlcNAc(b1-3)Gal(b1-4)GlcNAc(b1-3)Gal(b1-4)GlcNAc(b1-2)Man(a1-6)]Man(b1-4)GlcNAc(b1-4)GlcNAc
# Procedure, shortened: as §1
# [28] = molecular target: GlcNAc(b1-3)Gal(b1-4)GlcNAc(b1-3)Gal(b1-4)GlcNAc(b1-3)Gal(b1-4)GlcNAc(b1-2)Man(a1-3)[GlcNAc(b1-3)Gal(b1-4)GlcNAc(b1-3)Gal(b1-4)GlcNAc(b1-3)Gal(b1-4)GlcNAc(b1-2)Man(a1-6)]Man(b1-4)GlcNAc(b1-4)[Fuc(a1-6)]GlcNAc
# Procedure, shortened: as §1
# [29] = molecular target: GlcNAc(b1-3)Gal(b1-4)GlcNAc(b1-3)Gal(b1-4)GlcNAc(b1-3)Gal(b1-4)GlcNAc(b1-2)[GlcNAc(b1-3)Gal(b1-4)GlcNAc(b1-3)Gal(b1-4)GlcNAc(b1-3)Gal(b1-4)GlcNAc(b1-6)]Man(a1-6)[GlcNAc(b1-3)Gal(b1-4)GlcNAc(b1-3)Gal(b1-4)GlcNAc(b1-3)Gal(b1-4)GlcNAc(b1-2)Man(a1-3)]Man(b1-4)GlcNAc(b1-4)[Fuc(a1-6)]GlcNAc
# Procedure, shortened: as §1
# [30] = molecular target: GlcNAc(b1-3)Gal(b1-4)GlcNAc(b1-3)Gal(b1-4)GlcNAc(b1-3)Gal(b1-4)GlcNAc(b1-3)Gal(b1-4)GlcNAc(b1-2)Man(a1-3)[GlcNAc(b1-3)Gal(b1-4)GlcNAc(b1-3)Gal(b1-4)GlcNAc(b1-3)Gal(b1-4)GlcNAc(b1-3)Gal(b1-4)GlcNAc(b1-2)Man(a1-6)]Man(b1-4)GlcNAc(b1-4)GlcNAc
# Procedure, shortened: as §1
# [31] = molecular target: GlcNAc(b1-3)Gal(b1-4)GlcNAc(b1-3)Gal(b1-4)GlcNAc(b1-3)Gal(b1-4)GlcNAc(b1-3)Gal(b1-4)GlcNAc(b1-2)Man(a1-3)[GlcNAc(b1-3)Gal(b1-4)GlcNAc(b1-3)Gal(b1-4)GlcNAc(b1-3)Gal(b1-4)GlcNAc(b1-3)Gal(b1-4)GlcNAc(b1-2)Man(a1-6)]Man(b1-4)GlcNAc(b1-4)[Fuc(a1-6)]GlcNAc
# Procedure, shortened: as §1
# [32] = molecular target: GlcNAc(b1-3)Gal(b1-4)GlcNAc(b1-3)Gal(b1-4)GlcNAc(b1-3)Gal(b1-4)GlcNAc(b1-3)Gal(b1-4)GlcNAc(b1-2)[GlcNAc(b1-3)Gal(b1-4)GlcNAc(b1-3)Gal(b1-4)GlcNAc(b1-3)Gal(b1-4)GlcNAc(b1-3)Gal(b1-4)GlcNAc(b1-6)]Man(a1-6)[GlcNAc(b1-3)Gal(b1-4)GlcNAc(b1-3)Gal(b1-4)GlcNAc(b1-3)Gal(b1-4)GlcNAc(b1-3)Gal(b1-4)GlcNAc(b1-2)Man(a1-3)]Man(b1-4)GlcNAc(b1-4)[Fuc(a1-6)]GlcNAc
# Procedure, shortened: as §1
# [33] = molecular target: GlcNAc(b1-3)Gal(b1-4)GlcNAc(b1-3)Gal(b1-4)GlcNAc(b1-3)GalNAc
# Procedure, shortened: as §1
# [34] = molecular target: GlcNAc(b1-3)Gal(b1-4)GlcNAc(b1-3)GalNAc
# Procedure, shortened: as §1
# [35] = molecular target: GlcNAc(b1-3)Gal(b1-4)GlcNAc(b1-3)[GlcNAc(b1-3)Gal(b1-4)GlcNAc(b1-3)]GalNAc
# Procedure, shortened: as §1
binder,measurement,setting,value
"MGL1 (Mus musculus), P49300 (protein) MIYENLQNSRIEEKTQEPGKAPSQSFLWRILSWTHLLLFSLGLSLLLLVVVSVIGSQNSQLRRDLGTLRATLDNTTSKIKAEFQSLDSRADSFEKGISSLKVDVEDHRQELQAGRDLSQKVTSLESTVEKREQALKTDLSDLTDHVQQLRKDLKALTCQLANLKNNGSEVACCPLHWTEHEGSCYWFSESEKSWPEADKYCRLENSHLVVVNSLEEQNFLQNRLANVVSWIGLTDQNGPWRWVDGTDFEKGFKNWAPLQPDNWFGHGLGGGEDCAHITTGGPWNDDVCQRTFRWICEMKLAKES",glycan array binding signal (z-score),[1],-0.817
same,glycan array binding signal (z-score),[2],-0.434
same,glycan array binding signal (z-score),[3],0.82
same,glycan array binding signal (z-score),[4],1.54
same,glycan array binding signal (z-score),[5],-0.302
same,glycan array binding signal (z-score),[6],-0.125
same,glycan array binding signal (z-score),[7],-0.508
same,glycan array binding signal (z-score),[8],-0.13
same,glycan array binding signal (z-score),[9],-0.58
same,glycan array binding signal (z-score),[10],0.417
same,glycan array binding signal (z-score),[11],0.185
same,glycan array binding signal (z-score),[12],-0.221
same,glycan array binding signal (z-score),[13],-0.306
same,glycan array binding signal (z-score),[14],-0.77
same,glycan array binding signal (z-score),[15],-0.276
same,glycan array binding signal (z-score),[16],0.083
same,glycan array binding signal (z-score),[17],-0.349
same,glycan array binding signal (z-score),GlcNAc(b1-3)Fuc,0.112
same,glycan array binding signal (z-score),GlcNAc(b1-3)Gal,-0.398
same,glycan array binding signal (z-score),[18],-0.423
same,glycan array binding signal (z-score),GlcNAc(b1-3)Gal(b1-4)Glc,-0.059
same,glycan array binding signal (z-score),[19],0.138
same,glycan array binding signal (z-score),[20],-0.821
same,glycan array binding signal (z-score),[21],-0.068
same,glycan array binding signal (z-score),[22],-0.035
same,glycan array binding signal (z-score),[23],-0.131
same,glycan array binding signal (z-score),[24],0.529
same,glycan array binding signal (z-score),[25],0.033
same,glycan array binding signal (z-score),[26],1.01
same,glycan array binding signal (z-score),[27],-0.233
same,glycan array binding signal (z-score),[28],-0.262
same,glycan array binding signal (z-score),[29],0.778
same,glycan array binding signal (z-score),[30],0.039
same,glycan array binding signal (z-score),[31],-0.209
same,glycan array binding signal (z-score),[32],-0.096
same,glycan array binding signal (z-score),[33],-0.832
same,glycan array binding signal (z-score),[34],-0.589
same,glycan array binding signal (z-score),[35],-0.36
